A number of entries come with more than one value. Only these are listed. The source may hold further records. Values given together read as repeated measurements on other runs, samples or individuals; one of them may be the mean.
Each substance was assayed against Doc1-122–His6 (DocSTm toxin) (Salmonella typhimurium) (assay: SPR; Biacore S200; Doc-His6 captured on a Series S NTA chip (200-400 RU); peptide as analyte, single-cycle kinetics, six concentrations (3-fold dilutions), 30 uL/min; 22 C; 10 mM HEPES, 500 mM NaCl, 50 uM EDTA, 0.005% TWEEN 20, pH 8.0; kinetic 1:1 fit).
For peptide 19 (PhdSTm52-73-K73A), the Kd was 0.101, 0.0634, 0.1, 0.103 nM and the koff was 0.000109 1/s, 0.000134 1/s, 0.000128 1/s, 0.000132 1/s. peptide 1 (PhdSTm52-73) was tested, and the Kd was 0.0734, 0.0838, 0.0591, 0.0819 nM and the koff was 7.7e-05 1/s, 8.9e-05 1/s, 9.5e-05 1/s, 0.000104 1/s. For peptide 12 (PhdSTm52-73-N65A), the Kd was 0.251, 0.166, 0.0853, 0.0833 nM and the koff was 0.000316 1/s, 0.000264 1/s, 0.00011 1/s, 0.00012 1/s.

— publication PMC9207808 (ACS Chemical Biology, 2022)
